Like-named read-outs stand apart in the source and are kept apart here. Results are given in words; binding and its absence hold for the method and conditions named. In cells and extracts the contact can be indirect. Some entries that bind do so weakly or less than the wild type. Each block holds one molecule with its values, some of them ahead of it.
Key:
Assay in all cases: co-IP; GFP-trap beads on lysates of U-2 OS cells expressing mVenus-VPS37A constructs; 0.5% NP-40 lysis buffer (10 mM Tris-HCl pH 7.5, 150 mM NaCl, 0.5 mM EDTA); washed three times with 0.05% NP-40 buffer; immunoblotting
[1] = target: T1, mVenus-mVPS37A Δ43–139 (Mut) (mouse) (UniProt Q8CHS8)
T1 sequence: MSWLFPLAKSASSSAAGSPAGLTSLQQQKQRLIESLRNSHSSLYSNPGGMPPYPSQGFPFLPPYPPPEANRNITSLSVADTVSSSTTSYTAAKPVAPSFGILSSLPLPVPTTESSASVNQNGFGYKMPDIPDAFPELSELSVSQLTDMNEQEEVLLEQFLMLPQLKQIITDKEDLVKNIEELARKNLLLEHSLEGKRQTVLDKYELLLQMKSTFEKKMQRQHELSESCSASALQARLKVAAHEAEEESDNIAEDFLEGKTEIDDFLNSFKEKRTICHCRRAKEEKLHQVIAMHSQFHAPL

Sequences of proteins named here, by UniProt entry; tags and fusion partners are left off. A change or cut given only in a name is not applied to a line headed by its entry.
UniProt Q8NEZ2: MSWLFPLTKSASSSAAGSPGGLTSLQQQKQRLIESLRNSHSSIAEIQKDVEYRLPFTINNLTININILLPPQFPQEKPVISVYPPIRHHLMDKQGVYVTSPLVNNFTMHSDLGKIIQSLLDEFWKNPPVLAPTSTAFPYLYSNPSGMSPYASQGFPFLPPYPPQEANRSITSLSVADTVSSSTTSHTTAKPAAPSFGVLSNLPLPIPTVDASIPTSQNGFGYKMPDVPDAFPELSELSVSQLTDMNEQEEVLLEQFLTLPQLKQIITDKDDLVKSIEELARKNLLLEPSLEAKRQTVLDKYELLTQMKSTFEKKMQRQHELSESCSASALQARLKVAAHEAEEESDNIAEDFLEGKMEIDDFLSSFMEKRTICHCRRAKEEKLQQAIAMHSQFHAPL
UniProt Q99816: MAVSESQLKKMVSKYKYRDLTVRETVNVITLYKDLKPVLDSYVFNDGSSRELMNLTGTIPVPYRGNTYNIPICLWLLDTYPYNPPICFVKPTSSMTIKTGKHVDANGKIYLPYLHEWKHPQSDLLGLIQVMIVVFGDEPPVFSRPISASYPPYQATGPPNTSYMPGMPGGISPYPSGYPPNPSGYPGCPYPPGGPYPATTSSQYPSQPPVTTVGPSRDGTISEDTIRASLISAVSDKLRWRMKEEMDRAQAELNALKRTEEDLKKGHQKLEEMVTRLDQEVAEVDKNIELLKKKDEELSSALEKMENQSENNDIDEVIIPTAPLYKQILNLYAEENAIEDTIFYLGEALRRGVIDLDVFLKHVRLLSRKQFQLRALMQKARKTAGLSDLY
UniProt Q9UK41: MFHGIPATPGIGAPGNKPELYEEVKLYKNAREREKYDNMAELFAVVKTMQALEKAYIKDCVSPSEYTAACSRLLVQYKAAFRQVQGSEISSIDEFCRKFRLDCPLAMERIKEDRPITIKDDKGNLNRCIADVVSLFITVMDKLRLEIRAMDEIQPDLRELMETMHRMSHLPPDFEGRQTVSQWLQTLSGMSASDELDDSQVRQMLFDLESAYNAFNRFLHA

[2] = target: T2, mVenus-mVPS37A FL (WT) (mouse) (UniProt Q8CHS8)
T2 sequence: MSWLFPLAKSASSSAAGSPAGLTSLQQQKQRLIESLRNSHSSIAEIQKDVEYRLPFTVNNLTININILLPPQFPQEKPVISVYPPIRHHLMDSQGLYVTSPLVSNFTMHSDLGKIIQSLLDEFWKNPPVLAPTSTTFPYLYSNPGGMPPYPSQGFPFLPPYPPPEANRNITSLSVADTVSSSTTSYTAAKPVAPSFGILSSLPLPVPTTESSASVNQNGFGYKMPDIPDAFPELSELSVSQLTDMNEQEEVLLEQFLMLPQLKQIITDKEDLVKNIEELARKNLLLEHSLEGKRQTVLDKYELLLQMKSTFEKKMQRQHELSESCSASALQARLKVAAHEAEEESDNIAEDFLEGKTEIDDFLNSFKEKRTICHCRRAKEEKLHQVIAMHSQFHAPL

[3] = target: mVenus-hVPS37A WT (human) (UniProt Q8NEZ2)
[4] = target: mVenus-hVPS37A K382D (human) (UniProt Q8NEZ2)
[5] = target: T1, mVenus-mVPS37A Δ43–139 (Mut) (mouse); remark: listed apart in the source
[6] = target: T2, mVenus-mVPS37A FL (WT) (mouse); remark: listed apart in the source

binding [1]: binds
binding [2]: binds
Molecule: TSG101 (from UniProt Q99816 1-390)

binding [1]: binds
binding [2]: binds
Molecule: VPS28 (from UniProt Q9UK41 1-221)

binding [3]: binds
binding [4]: no binding
binding [5]: binds
binding [6]: binds
B1: UBAP1 (protein, UniProt Q9NZ09 1-502)
chain: MASKKLGADFHGTFSYLDDVPFKTGDKFKTPAKVGLPIGFSLPDCLQVVREVQYDFSLEKKTIEWAEEIKKIEEAEREAECKIAEAEAKVNSKSGPEGDSKMSFSKTHSTATMPPPINPILASLQHNSILTPTRVSSSATKQKVLSPPHIKADFNLADFECEEDPFDNLELKTIDEKEELRNILVGTTGPIMAQLLDNNLPRGGSGSVLQDEEVLASLERATLDFKPLHKPNGFITLPQLGNCEKMSLSSKVSLPPIPAVSNIKSLSFPKLDSDDSNQKTAKLASTFHSTSCLRNGTFQNSLKPSTQSSASELNGHHTLGLSALNLDSGTEMPALTSSQMPSLSVLSVCTEESSPPNTGPTVTPPNFSVSQVPNMPSCPQAYSELQMLSPSERQCVETVVNMGYSYECVLRAMKKKGENIEQILDYLFAHGQLCEKGFDPLLVEEALEMHQCSEEKMMEFLQLMSKFKEMGFELKDIKEVLLLHNNDQDNALEDLMARAGAS
